In PubChem BioAssay AID2451 (National Center for Advancing Translational Sciences (NCATS), 2010):
“And” between values parts separate entries of the source, which are not always exact repeats. Equal values may be shown once. Hit rate of the full screen: of about 290,000 compounds, about 2,100 (0.72%) were called active. The inconclusive results got no clear call from the source; some entries with a clear call stand among them for comparison. The call rests on the fitted dose curve; in most records, active means well fitted inhibition curve with a large enough effect; inconclusive means small, poorly fitted or top-dose-only effect, or effect the other way; inactive means flat fitted curve, though single readings scatter. Potencies beside an inconclusive call are fits to weak or partial responses and may not hold up.

Target: Fructose-bisphosphate aldolase (Giardia intestinalis (strain ATCC 50803 / WB clone C6)) (UniProt A8B2U2)
Chain of UniProt A8B2U2 (A8B2U2 whole entry, looked up): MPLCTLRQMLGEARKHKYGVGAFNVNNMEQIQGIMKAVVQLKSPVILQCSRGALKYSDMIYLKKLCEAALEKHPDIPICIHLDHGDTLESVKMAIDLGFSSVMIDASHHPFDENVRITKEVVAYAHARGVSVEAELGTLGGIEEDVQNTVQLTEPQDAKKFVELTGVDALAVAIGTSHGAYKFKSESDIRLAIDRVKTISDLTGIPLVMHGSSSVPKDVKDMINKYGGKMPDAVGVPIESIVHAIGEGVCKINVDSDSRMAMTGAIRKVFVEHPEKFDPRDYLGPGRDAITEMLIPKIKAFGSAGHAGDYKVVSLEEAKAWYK
Assay: qHTS Assay for Inhibitors of Fructose-1,6-bisphosphate Aldolase from Giardia Lamblia; further: nearly all actives have a fitted effect of over 55% in size
Settings: purified Giardia FBPA; activity, negative = inhibition: at 59.6 µM (top of the series) unless noted
How it was run: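 40 nM FBPA preincubated 10 min at RT with compound (up to 57.5 uM final), then substrate plus GAPDH/TPI/NAD/arsenate coupling and diaphorase/resazurin added. Fluorescence read after 20 min at RT, 525/598 nm.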
On the % scale 0 is the no-effect control and ±100 the full control effect; potency means the concentration at half of the fitted maximal effect; tags describe the fitted curve by direction and shape.

Row | Structure (SMILES) | Potency | activity, negative = inhibition
1 | COc1ccc(NS(=O)(=O)c2cccc(C(=O)N/N=C/c3ccccn3)c2)cc1 | inconclusive: 15.8 µM [inhibitor, partial curve] | 
2 | CCCS(=O)(=O)c1c(S(=O)(=O)CCC)c2c(N)cccn2c1C(=O)c1ccc(OC)cc1 | inconclusive: 15.8 µM [inhibitor, single point] | 
3 | COc1ccc(OC)c(C(c2nnnn2Cc2ccccc2)N2CCN(C)CC2)c1 (configuration not stated) |  | inactive: -13.6%
4 | Cc1nc2ncccn2c1-c1csc(NCc2ccco2)n1 | inconclusive: 8.89 µM [inhibitor, partial curve] | 
5 | CC(C)c1ccc(OCCCCCN2CCOCC2)cc1 | inconclusive: 12.6 µM [inhibitor, partial curve] | 
6 | Cc1nn(-c2ccccc2)c(C)c1C(=O)Nc1nnc(-c2ccco2)o1 | inconclusive: 28.2 µM [activator, partial curve] | 
7 | CCCSC1=N/C(=C\c2ccc([N+](=O)[O-])o2)C(=O)S1 | inconclusive: 19.9 µM [inhibitor, partial curve] | 
8 | COC/C=C/C1=CC2=CC(=O)C(C)(OC(=O)CCC(=O)OC)C(=O)C2=CO1 (configuration not stated) | inconclusive: 17.7 µM [inhibitor, partial curve] | 
9 | NC(=S)NNc1ccnc2cc(Cl)ccc12 | active: 15.8 µM | 
10 | Nc1nonc1C(=O)N/N=C/c1ccc([N+](=O)[O-])o1 | inconclusive: 17.7 µM [inhibitor, partial curve] | 
11 | N#CCc1c(C#N)c(N)nc(N2CCCC(O)C2)c1C#N (configuration not stated) | inconclusive: 8.89 µM [inhibitor, partial curve] | 
12 | O=C(O)/C=C(\CC(=O)O)C(=O)O | inconclusive: 12.6 µM [inhibitor, partial curve] | 
13 | O=C1NC(c2ccccc2)=C(c2nc3ccccc3s2)C(c2ccccc2)N1 (configuration not stated) |  | inactive: -3.48%
14 | Cn1c(COc2ccccc2Br)nc2ccccc21 |  | inactive: 6.48%
15 | CCCCCCOC(=O)c1ccccc1NC(=O)/C=C/C(=O)O |  | inactive: 8.89%
16 | COc1ccccc1N1CCN(C2CCN(C(=O)COc3ccccc3)CC2)CC1 | inconclusive: 19.9 µM [inhibitor, partial curve] | 
17 | COc1ccccc1NC(=O)C1=C(C)NC(SCC(=O)Nc2ccc(C(=O)O)cc2)=C(C#N)C1c1cccs1 (configuration not stated) |  | inactive: -5.48%
18 | CCCOc1ccc(Cc2nn[nH]n2)cc1 | inconclusive: 15.8 µM [inhibitor, partial curve] | 
19 | CCOC(=O)C1(CCOC)CCN(Cc2ccncc2)CC1 |  | inactive: -8.19%
20 | Oc1cc(O)cc(/C=C/c2ccc(O)c(O)c2)c1 | inconclusive: 15.8 µM [inhibitor, partial curve] | 
21 | COc1ccc(/C=C/C(=O)NC(=S)N2C[C@H]3C[C@H](C2)c2cccc(=O)n2C3)cc1 | inconclusive: 28.2 µM [inhibitor, partial curve] | 
22 | CCOC(=O)c1c(-c2ccccc2)csc1N1C(=O)Nc2ccccc2N1O | inconclusive: 17.7 µM [activator, partial curve] | 
23 | Oc1ccccc1N1CCN(CC(O)COC2CCCc3ccccc32)CC1 (configuration not stated) | inconclusive: 15.8 µM [inhibitor, partial curve] | 
24 | COc1cc(CN2CCN(Cc3ccccc3C(F)(F)F)CC2)cc(OC)c1OC | inconclusive: 15.8 µM [inhibitor, partial curve] | 

Row | Structure (SMILES) | Potency | activity, negative = inhibition
25 | CC1CCN(CCCCOc2ccccc2Br)CC1 | inconclusive: 14.1 µM [inhibitor, partial curve] | 
26 | O=C(Cc1ccccc1F)Nc1nc(-c2ccc(F)cc2)cs1 |  | inactive: 3.19%
27 | O=C1c2ccccc2NC2(CCCC2)N1O | inconclusive: 35.4 µM [inhibitor, single point] | 
28 | O=C1/C(=C\c2ccc(O)c(O)c2)N=C2CCCCCN12 | inconclusive: 17.7 µM [inhibitor, partial curve] | 
29 | CCOc1cc(NC(=S)NC)c(OCC)cc1NC(=O)c1ccco1 | inconclusive: 35.4 µM [inhibitor, single point] | 
30 | CC(C(=O)Nc1ccc(F)c(F)c1)N1CCN(C)CC1 (configuration not stated) | inconclusive: 14.1 µM [inhibitor, partial curve] | 
31 | CCCc1cc2c(n1Cc1cc(F)cc(F)c1)C(C)C1CN(C(=O)c3ccccc3)C(C)(C(=O)OC)C21 (configuration not stated) | inconclusive: 15.8 µM [inhibitor, single point] | 
32 | COC(=O)Cc1nnc(NC(=O)C(C)C)s1 | inconclusive: 17.7 µM [inhibitor, single point] | 
33 | CC(C)=CCCC(C)CN1CCC(O)CC1 (configuration not stated) | inconclusive: 20 µM [inhibitor, partial curve] | 
34 | CC1CC(C)(C)N(C(=O)CN2CCN(C)CC2)c2ccccc21 (configuration not stated) | inconclusive: 15.8 µM [inhibitor, partial curve] | 
35 | N#CCCCN1C(=O)C(=C(C#N)C#N)c2ccccc21 | inconclusive: 2.23 µM [inhibitor, full curve] | 
36 | O=C1C=C[C@@H](O)[C@H]2[C@@H]3C(=O)N(Cc4ccc5c(c4)OCO5)C(=O)[C@@H]3CC[C@H]12 |  | inactive: 0.372% [at 12.9 µM]
37 | CCN(CC)CCN(C(=O)c1ccc(S(=O)(=O)N2CCCC2)cc1)c1nc2cc(C)cc(C)c2s1 | inconclusive: 20 µM [inhibitor, single point] | 
38 | O=S(=O)(c1ccccc1)N1CCN(Cc2ccccc2C(F)(F)F)CC1 | inconclusive: 17.7 µM [inhibitor, single point] | 
39 | Cc1nnc(N/N=C/c2ccc([N+](=O)[O-])cc2)n1N | active: 15.8 µM | 
40 | COc1ccccc1NC(C#N)c1ccccc1OCc1ccccc1 (configuration not stated) | inconclusive: 15.8 µM [inhibitor, partial curve] | 
41 | COc1ccc(NC(=S)N2CCC(C(O)(c3ccccc3)c3ccccc3)CC2)cc1 |  | inactive: 6.67%
42 | Cc1ccc(-c2c(C(=O)N/N=C/c3cccc(Cl)c3)nnn2-c2nonc2N)cc1 | inconclusive: 25.1 µM [inhibitor, single point] | 
43 | CCOC(=O)N1CCN(Cc2ccc(F)cc2F)CC1 | inconclusive: 17.7 µM [inhibitor, partial curve] | 
44 | COc1ccc(C/C(N)=N/n2cnnc2)cc1 |  | inactive: 2.64%
45 | N#CC1=C(N)Oc2c(ccc3ccccc23)C1c1ccsc1 (configuration not stated) | inconclusive: 15.8 µM [inhibitor, partial curve] | 
46 | COc1ccc(Cl)cc1S(=O)(=O)Nc1ncn[nH]1 | inconclusive: 17.8 µM [inhibitor, single point] | 
47 | Cc1ccc(C)c(OCC(=O)Nc2ccc(S(=O)(=O)Nc3onc(C)c3C)cc2)c1 |  | inactive: 9.08%
48 | CCOc1ccc(-c2cnc(NCc3cccc4ccccc34)n2CCOC)cc1 | inconclusive: 15.8 µM [inhibitor, partial curve] | 

Row | Structure (SMILES) | Potency | activity, negative = inhibition
49 | CC(C)Sc1nc2[nH]ncc2c(=O)[nH]1 | inconclusive: 15.8 µM [inhibitor, single point] | 
50 | COCCCn1c(=S)[nH]c2c(sc3ccccc32)c1=O | inconclusive: 15.8 µM [inhibitor, single point] | 
51 | CCOc1ccc2ccccc2c1/C=N/NC(=O)CC1(C)OCCCO1 | inconclusive: 7.92 µM [inhibitor, partial curve] | 
52 | COC(=O)/C=C/c1cnc2ccccc2c1 |  | inactive: -4.15%
53 | CCc1nc(SCc2cccnc2)c(C#N)cc1C | inconclusive: 17.7 µM [activator, single point] | 
54 | Cc1cc(-c2nnc(SCC(=O)Nc3nc(-c4ccccc4)cs3)o2)no1 |  | inactive: -0.574%
55 | CC1CC(C)(C)NC(=S)N1CCCC(=O)Nc1ccc2c(c1)OCCO2 (configuration not stated) | inconclusive: 15.8 µM [inhibitor, partial curve] | 
56 | O=C(Nc1nccs1)c1sc2ccccc2c1Cl |  | inactive: 1.16%
57 | N#CCc1nc(C(c2ccccc2)c2ccccc2)no1 | inconclusive: 3.55 µM [inhibitor, full curve] | 
58 | Cc1nnc(SCC(=O)NCc2ccccc2Cl)[nH]c1=O |  | inactive: 12.3%
59 | CCCCC1=CC2=CC(=O)C(C)(OC(=O)CC)C(=O)C2=CN1Cc1ccc2c(c1)OCO2 (configuration not stated) | inconclusive: 792 nM [inhibitor, full curve] and inconclusive: 1.99 µM [inhibitor, partial curve] | 
60 | COc1ccc(S(=O)(=O)Nc2ccccc2Cl)cc1NC(C)=O |  | inactive: -15.7%
61 | O=C(O)c1ccc(Cl)c(S(=O)(=O)N2CCCCCC2)c1 | inconclusive: 19.9 µM [activator, partial curve] | 
62 | CN(C)S(=O)(=O)c1ccc(C(=O)OCC2COC(C)(C)O2)cc1 (configuration not stated) |  | inactive: 9.48%
63 | FC(F)(F)c1cnc(C(c2ccccn2)c2ncn[nH]2)c(Cl)c1 (configuration not stated) | inconclusive: 3.54 µM [inhibitor, single point] | 
64 | O=C(C#Cc1ccccc1)Nc1cccc(F)c1 |  | inactive: 2.51%
65 | CCOc1ccccc1NC(=O)C1CCN(S(=O)(=O)c2ccc(OC)c(OC)c2)CC1 |  | inactive: -1.85%
66 | O=C(NCCCN1CCCC1)[C@H](CSCc1ccccc1)N1Cc2ccccc2C1=O | active: 17.7 µM | 
67 | Nc1nc(-c2cccc(F)c2)cs1 | active: 11.2 µM | 
68 | CN1CCc2c(sc(/N=C/c3ccco3)c2C(N)=O)C1 | inconclusive: 17.7 µM [inhibitor, single point] | 
69 | Cc1cccc(NCc2ccc([N+](=O)[O-])s2)c1 | inconclusive: 28.2 µM [inhibitor, single point] | 
70 | O=C(c1ccco1)N1CCN(C2CCCC2)CC1 | inconclusive: 15.8 µM [inhibitor, partial curve] | 
71 | COc1ccccc1-n1c(N)c(C(N)=O)sc1=S | inconclusive: 15.8 µM [inhibitor, partial curve] | 
72 | CCOC(=O)C1CCCN(C/C=C/c2ccccc2[N+](=O)[O-])C1 (configuration not stated) | inconclusive: 15.8 µM [inhibitor, partial curve] | 
